From PubChem BioAssay AID624296 (National Center for Advancing Translational Sciences (NCATS), 2012)
In all, about 350,000 compounds went through this assay and about 9,900 (2.8%) were called active. Inconclusive means that the source gave no clear call. Such entries were picked first, then a sample of the others. Calls follow the shape of the dose curve; as a rule, active = well fitted activation curve with a large enough effect; inconclusive = small, poorly fitted or top-dose-only effect; inactive = no such curve, though single readings can be large or run the other way. Potencies of inconclusive entries are left out as doubtful fits.

Experiment: A quantitative high throughput screen for small molecules that induce DNA re-replication in MCF 10a normal breast cells. Also: nearly all actives have a fitted effect of over 50% in size.
Conditions: MCF 10A DNA re-replication, Hoechst nuclear intensity, 48 h; series mostly up to 46.1 µM
Potency is read from the fitted curve at half-maximal effect; tags tell the direction and shape of the fitted curve.

SMILES	Potency
Cc1ccc(S(=O)(=O)Nc2cc3c4c(c2)CCN4C(=O)CC3)cc1	inconclusive [activator, partial curve, poor fit]
CN(C)C(=O)CSc1nnc(-c2cc(-c3cccs3)nc3ccccc23)o1	active: 10.3 µM
O=C(NCc1ccncc1)c1ccc2nc(Cc3ccccc3F)oc2c1	inactive
Cc1ccc(S(=O)(=O)NNC(=O)c2cc3cc4ccccc4nc3s2)cc1	inconclusive [activator, single point]
COc1ccc(C2CC(c3cccc(Br)c3)=NN2c2ccc(S(N)(=O)=O)cc2)cc1 (configuration not stated)	inconclusive [activator, full curve, poor fit]
CCN1CCN(CCNC(=O)Cn2c(=O)c3cccn3c3ccc(F)cc32)CC1	inconclusive [activator, single point]
CCOc1ccccc1N=C1SCC(C)N1C(=O)C1CCN(c2ncnc3sc(C)c(C)c23)CC1 (configuration not stated)	inactive
COc1cc(NS(=O)(=O)c2ccc(NC(=S)NC(=O)COc3ccccc3OC)cc2)nc(OC)n1	inconclusive [activator, single point]
CN(C(=O)COC(=O)C(C)(C)Oc1ccc(Cl)cc1)c1c(N)n(Cc2ccccc2)c(=O)[nH]c1=O	inactive
COc1cccc(C(C)NC(=O)Nc2cccc(C(F)(F)F)c2)c1 (configuration not stated)	inactive
COc1ccccc1-n1c(SCC(=O)Nc2cc(C)on2)nc2c([nH]c3ccccc32)c1=O	inconclusive [activator, partial curve, poor fit]
O=C(Nc1ccc(Cl)cc1)Nc1ccc(N2CCC(C(F)(F)F)CC2)nc1	inconclusive [activator, partial curve, poor fit]
Cc1ccc(S(=O)(=O)Nc2cc(Cl)c(O)cc2C)cc1	inconclusive [activator, single point]
CC(=O)Nc1ccc(Sc2ncccc2C(=O)Nc2cc(Cl)cc(Cl)c2)cn1	inconclusive [activator, single point]
COc1cc2sc(-c3ccc(S(C)(=O)=O)cc3)c(C#CCO)c2cc1OC	inconclusive [activator, single point]
COc1cccc(C(=O)NNC(=O)/C=C/c2ccccc2)c1	inactive
COc1ccc(CCn2c(C(C)C)nc3oc4ccccc4c(=O)c3c2=O)cc1	inconclusive [activator, partial curve]
Cc1cccc(CCNC(=O)C2CCN(S(=O)(=O)c3c(C)nn(C)c3C)CC2)c1	inconclusive [activator, single point]
O=C(NN=Cc1c(O)ccc2ccccc12)c1ccncc1	inconclusive [activator, full curve]
Cc1cc(C)n(-c2ccc(C(=O)Nc3ccc4c(c3)OCCO4)cc2)n1	inconclusive [activator, partial curve, poor fit]
CCN1CC=C2C(C1)C(c1ccc(Cl)s1)C(C#N)=C(N)C2(C#N)C#N (configuration not stated)	inactive

SMILES	Potency
COc1ccc(OC)c(C(=O)c2coc3cc(Br)c(O)c(Br)c23)c1	inconclusive [activator, single point]
COC(=O)c1c(N)c(C#N)c2n1CCCCC2	inconclusive [activator, single point]
COc1ccccc1CNC(=O)CCNC(=O)C1CCN(S(=O)(=O)c2ccccc2)CC1	inactive
COc1ccc(OC)c(-c2cc(C(=O)Nc3sc4c(c3C#N)CCC(C)C4)c3ccccc3n2)c1 (configuration not stated)	inconclusive [activator, partial curve, poor fit]
O=C(c1cccnc1)N1CCN(c2c(Cl)cccc2[N+](=O)[O-])CC1	inconclusive [activator, partial curve, poor fit]
Cc1c(C(=O)N2CCCCCC2)c(S(=O)(=O)Nc2cccc(F)c2)c(C)n1C	inactive
O=c1[nH]c(CN(CCc2ccccc2)S(=O)(=O)c2ccc(Cl)cc2)nc2ccccc12	inactive
COc1ccc(CNCCC(c2ccc(F)cc2)c2ccc(OC)cc2)cc1 (configuration not stated)	inconclusive [activator, single point]
CCCCc1ccc(NC(=O)CSc2nc(=O)n(CCN(C)C)c3c2CCC3)cc1	inconclusive [activator, partial curve, poor fit]
Cc1ccc2nc(N/N=C/c3ccccc3F)nc(-c3ccccc3)c2c1	inconclusive [activator, single point]
CCCC(C(=O)Nc1ccc(C)c(S(=O)(=O)N2CCOCC2)c1)c1ccccc1 (configuration not stated)	inactive
N#Cc1ccc(OCC(=O)N(C2CCCCC2)C2CCS(=O)(=O)C2)cc1 (configuration not stated)	inconclusive [activator, single point]
Cc1cc(Br)ccc1NC(=O)CNC(=O)Cn1ncc(Cl)c(Cl)c1=O	active: 1.16 µM
COc1ccc2c(-c3ccccc3)cc(SCC(N)=O)nc2c1	inconclusive [activator, single point]
COC(=O)c1cccc(NS(=O)(=O)c2ccc(OC)cc2)c1C	active: 5.8 µM
CC(=O)N(C)c1cccc([N+](=O)[O-])c1	inconclusive [activator, single point]
C[C@H](NC(=O)c1nc[nH]c1C(=O)N[C@@H](Cc1ccccc1)C(=O)OC(C)(C)C)C(=O)OC(C)(C)C	inconclusive [activator, single point]
Cc1sc2nc(SCC(=O)NCc3cccs3)[nH]c(=O)c2c1C	inconclusive [activator, partial curve, poor fit]
O=C(c1ccncc1)N1N=C(c2ccc(Br)cc2)CC1c1ccccc1O (configuration not stated)	inconclusive [activator, single point]
COc1cc(NC(=O)Cc2ccc(F)cc2)cc(OC)c1OC	inconclusive [activator, single point]
Cn1c(=O)n(C)c2cc([N+](=O)[O-])c(N3CCN(C(=O)c4ccc(Cl)cc4)CC3)cc21	inactive
